# The supplement of paper PMC8728848
# The entries come from a sample that favours the strongest signals as a whole.
# Experiments:
# Assay in all cases: glycan array binding signal (z-score within array); higher = stronger binding
# Conditions in all cases: glycan notation: IUPAC condensed, linker removed
# Gal6S(b1-3)GlcNAc6S = tested on: Gal6S(b1-3)GlcNAc6S
# Outline: (§1)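 Negative Z-scores can be read as non-binding. The Z-score is calculated within each array and then averaged across arrays of one protein sequence at different concentrations or buffers and across linkers. Arrays, 3228 in all, were curated from the Consortium for Functional Glycomics database and kept only where the protein sequence was available.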
# Glc(a1-6)Glc(a1-6)Glc = tested on: Glc(a1-6)Glc(a1-6)Glc
# Outline: as §1
# Gal6S(b1-3)GlcNAc = tested on: Gal6S(b1-3)GlcNAc
# Outline: as §1
# Gal6S(b1-4)GlcNAc = tested on: Gal6S(b1-4)GlcNAc
# Outline: as §1
# [1] = tested on: GalNAc(a1-3)GalNAc(b1-3)Gal(a1-4)Gal(b1-4)GlcNAc
# Outline: as §1
# Gal6S(b1-4)Glc6S = tested on: Gal6S(b1-4)Glc6S
# Outline: as §1
# Gal6S(b1-4)GlcNAc6S = tested on: Gal6S(b1-4)GlcNAc6S
# Outline: as §1
# [2] = tested on: GalNAc3S(b1-4)[Fuc(a1-3)]GlcNAc
# Outline: as §1
# Glc(a1-4)Glc = tested on: Glc(a1-4)Glc
# Outline: as §1
# Gal6S(b1-4)Glc = tested on: Gal6S(b1-4)Glc
# Outline: as §1
# GlcA(b1-3)Gal = tested on: GlcA(b1-3)Gal
# Outline: as §1
# GalNAc(a1-3)GalNAc = tested on: GalNAc(a1-3)GalNAc
# Outline: as §1
# GalNAc(b1-3)GalNAc = tested on: GalNAc(b1-3)GalNAc
# Outline: as §1
# [3] = tested on: GalNAc(b1-4)GlcNAc(b1-3)GalNAc(b1-4)GlcNAc
# Outline: as §1
# Glc(b1-4)Glc = tested on: Glc(b1-4)Glc
# Outline: as §1
substance,measurement,setting,value
MBP (Homo sapiens) (chain not printed),glycan array binding signal (z-score),Gal6S(b1-3)GlcNAc6S,-0.405
same,glycan array binding signal (z-score),Glc(a1-6)Glc(a1-6)Glc,-0.249
Gal 3 (Homo sapiens) (chain not printed),glycan array binding signal (z-score),Gal6S(b1-3)GlcNAc,-0.071
same,glycan array binding signal (z-score),Gal6S(b1-4)GlcNAc,-0.122
FGF2 (chain not printed),glycan array binding signal (z-score),Gal6S(b1-3)GlcNAc,0.046
same,glycan array binding signal (z-score),[1],-0.347
CLEC-2 (Homo sapiens) (chain not printed),glycan array binding signal (z-score),Gal6S(b1-4)Glc6S,1.56
NCAM1 (Homo sapiens) (chain not printed),glycan array binding signal (z-score),Gal6S(b1-4)GlcNAc6S,1.63
Meso764 (Homo sapiens) (chain not printed),glycan array binding signal (z-score),Gal6S(b1-4)GlcNAc6S,0.456
same,glycan array binding signal (z-score),[2],-0.535
Serum Amyloid P component (Homo sapiens) (chain not printed),glycan array binding signal (z-score),Gal6S(b1-4)GlcNAc,0.245
same,glycan array binding signal (z-score),Glc(a1-4)Glc,-0.311
M-Ficolin Y271F (Homo sapiens) (chain not printed),glycan array binding signal (z-score),Gal6S(b1-4)Glc,0.18
M-Ficolin (Homo sapiens) (chain not printed),glycan array binding signal (z-score),Gal6S(b1-4)Glc,-0.149
same,glycan array binding signal (z-score),GlcA(b1-3)Gal,-0.283
VWF (Homo sapiens) (chain not printed),glycan array binding signal (z-score),GalNAc(a1-3)GalNAc,6.14
Gal 8 long (Homo sapiens) (chain not printed),glycan array binding signal (z-score),GalNAc(b1-3)GalNAc,-0.16
Thrombomodulin Extracellular (Homo sapiens) (chain not printed),glycan array binding signal (z-score),[3],-0.38
same,glycan array binding signal (z-score),Glc(a1-4)Glc,0.436
same,glycan array binding signal (z-score),GlcA(b1-3)Gal,1.52
Angiogenin (Homo sapiens) (chain not printed),glycan array binding signal (z-score),Glc(a1-6)Glc(a1-6)Glc,3.12
same,glycan array binding signal (z-score),Glc(b1-4)Glc,0.669
